The supplement of paper PMC11417369
± gives the standard deviation of the averaged measurements. Some of the results follow.

System: PfAP2-I AP2 domain 3 (GST-tagged)
Test: gcPBM binding intensity (ln(normalized median fluorescence intensity)); higher = stronger DNA binding
Summary of the method: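 Alexa488 anti-GST antibody, scanned at 488 nm, detected GST-tagged P. falciparum DNA-binding domains that had been expressed in E. coli and incubated for 1 h on an Agilent 4 × 180k array. The array carried primer-extended double-stranded 36-bp intergenic genomic probes and negative controls. Binding intensity is the highest Masliner-normalised natural-log median intensity across replicate spots of either orientation of each probe.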

| Sequence | gcPBM binding intensity (ln) |
| --- | --- |
| ATAGAAGCATCACACTGTACATGGATGAACAGAAAA [XGTACX_site7311] | 7.64 ± 0.71 |
| TATAATATAAGGATCACACACAAACAGACATATATA [CACACA_site557] | 7.92 ± 0.56 |
| TAATGTTTTTATATCACACACAAATATTAAATGATT [CACACA_site543] | 7.72 ± 0.51 |
| TTATTAGGTGTATAATGTACATATAATATATATATA [XGTACX_site3398] | 8.93 ± 0.092 |
| TTAAAAATTATGGATACACACATATATATATATATT [CACACA_site2383] | 7.62 ± 0.4 |
| GATATTAAAATATGTAGTACACATATTATATCATAT [XGTACX_site4167] | 8.005 ± 0.064 |
| ATAGTTCCTTTTAATACACACAAAAAAAAAAACATG [CACACA_site3415] | 8.05 ± 0.42 |
| AATAAACATAAATACACACACAAAAAAAAAAACATA [CACACA_site4396] | 7.8 ± 0.27 |
| TTTTTTTTTTTTTGATGTACTAAAAAAAATGAGCCT [XGTACX_site8535] | 8.11 ± 0.63 |
| AAAAACAAAATATAATGTACACAATATATGTATATA [XGTACX_site2301] | 7.77 ± 0.17 |
| AAATATTACTACACTACATGCAGTTTTAGGTACACT [TGCATGCA_site42] | 8.05 ± 0.54 |
| AATATCTAAATAAAGTGTACTTACCTTATTAATTAT [XGTACX_site2276] | 7.79 ± 0.29 |
| CCAATACATAGAAACTGTACATTATGCATTATACAC [XGTACX_site3531] | 8.5 ± 0.42 |
| ATTAGCTACAAACAAAGGCTACCTATAGCAAGAGGG [GTGCAC_negctrl_site33] | 8.1 ± 0.69 |
| TATATATATACATACATACACACATATATATATATA [CACACA_site4109] | 9.26 ± 0.47 |
| ATAATTTCTTTTACATGTACAAAATTTGCTTATATG [XGTACX_site5388] | 7.85 ± 0.61 |
| ATATATATAATGTGAAGTACATTTTGTTTACATATT [XGTACX_site8405] | 8.38 ± 0.6 |
| TAATTTATGGAATATGTGCACTTGCTGATCACTTTT [GTGCAC_site9843] | 9.93 ± 0.12 |
| TTTATTAAATAATCTCTTTTTATTACATAATAATAA [XGTACX_negctrl_site382] | 7.34 ± 0.35 |
| TTTACACTTTCCAATAGTACATATTAGAATAATTCT [XGTACX_site7734] | 7.75 ± 0.57 |
| GGATTATTTATAGGAGTGCATACATATATATATATA [GTGCAC_site9454] | 9.76 ± 0.071 |
| TTTTTGTTTCATAAATGTACAAAAACAAACATATTT [XGTACX_site5281] | 7.68 ± 0.28 |

| Sequence | gcPBM binding intensity (ln) |
| --- | --- |
| TCGTCTCAATAATTATAATAAAAAAATTCCTAAGTC [CACACA_negctrl_site338] | 7.62 ± 0.35 |
| ATTTTCCTATTTAGTAGTACTTTTTTCTTTTTTTAA [XGTACX_site5260] | 8.04 ± 0.59 |
| ATTATATTTATTAATATGTATATTTAATTATATTTA [XGTACX_negctrl_site376] | 7.32 ± 0.26 |
| TTTCATCTCGTCATTTCTTATATAACTATTTTATAC [CACACA_negctrl_site813] | 7.83 ± 0.74 |
| ATTATTGTTTATTGATTTTTGTTAAAATAGGAAATT [GTGCAC_negctrl_site181] | 7.61 ± 0.48 |
| TTCTTTATTATATGCACACGTACATAAAATATATAT [CACACA_site5157] | 9.72 ± 0.14 |
| AAGTGTAAAAGTTACACACACAAACTTGTCATTTTT [CACACA_site4614] | 7.54 ± 0.53 |
| CAAATTTTTTATTAAACACACAAACATATATATATA [CACACA_site5122] | 9.19 ± 0.33 |
| ATTTTTTTTTTTTTTTGTACGAATAATATGTATGAA [XGTACX_site5318] | 7.76 ± 0.11 |
| TATAAAAAATATATATATAATATTATATATATATAT [TGCATGCA_negctrl_site260] | 9.03 ± 0.092 |
| AAAGGAGGGAATTTTTCTAGGTGTGGAGTGCTACTC [XGTACX_negctrl_site63] | 7.91 ± 0.64 |
| AAGAAAAGAAACAAAAAAAAAAAGAAATAAAAGGAA [TGCATGCA_negctrl_site171] | 7.66 ± 0.57 |
| TTATTATCATCAAATCAAAAAATTCTTTTACCTGTT [CACACA_negctrl_site1348] | 7.42 ± 0.67 |
| TATATATATATATGTAGTACCTATAATATTAAATAC [XGTACX_site6118] | 9.17 ± 0.18 |
| TATGAATGGTTAAGTACACACATATTAATATAGGTA [CACACA_site7606] | 7.79 ± 0.49 |
| ATCAATAAATAAAATGTGCACATAATATATTAATAC | 9.77 ± 0.57 |
| AATTTTTTTTTTTTTTTTTTTTATATATGTGTGTGT [XGTACX_negctrl_site129] | 7.59 ± 0.28 |
| CTTATAAATAAAAGAAGTACATGTTAGTTCAAGTTA [XGTACX_site4183] | 7.71 ± 0.44 |
| TTGAAGAAAAAAAAATGTACATAAAAAATATATATG [XGTACX_site428] | 7.96 ± 0.53 |
| GTATATGAATGTTCATGTACATAATAAAATATATAA [XGTACX_site250] | 7.82 ± 0.54 |
| AAATTAAAATATAATACACACATAAAAAAAAAATCA [CACACA_site5918] | 7.68 ± 0.61 |
| ATAAAATATAAAAACGCACACAATTATAAGGGTGTA [CACACA_site177] | 7.95 ± 0.35 |

| Sequence | gcPBM binding intensity (ln) |
| --- | --- |
| ATATATATATATAAAGTGCAAAAATGAAAGTAAGAC [GTGCAC_site9850] | 10.4 ± 0.21 |
| ATGTTCTATAAATATGAACACACGACATATTATTTA [CACACA_site1799] | 7.63 ± 0.47 |
| ATATATATATATATATGTACATATTATTCTCATTGT [XGTACX_site6259] | 9.24 ± 0.3 |
| TATATTTAATTACATGAACACACATTATATATTTTT [CACACA_site8969] | 7.62 ± 0.35 |
| TGTAGTATCAATTTTTGTACATAACACATATGTATA [XGTACX_site613] | 7.66 ± 0.5 |
| AAAACAAACACATTTACACACATAAATAAATCAATT [CACACA_site4122] | 7.8 ± 0.3 |
| TTTATTTTTCCATATGCACACACACCGTATATATAA [CACACA_site8293] | 9.22 ± 0.19 |
| ATACATACATACATACGTACATATGTATATATATAT [XGTACX_site8498] | 8.88 ± 0.44 |
| TATTCATTCTATAAAACACACAAATATTTTTGTATC [CACACA_site666] | 7.66 ± 0.49 |
| AAAATATAAATATATTTGAACATGGATCAAATGTAA [GTGCAC_negctrl_site626] | 7.29 ± 0.54 |
| AAAAAAAAATAGAAATGTACAAATTGTAATAATTCC [XGTACX_site6182] | 7.47 ± 0.73 |
| CATATGATATTATTTTGTACTTATTACAAATATGAA [XGTACX_site7929] | 7.63 ± 0.26 |
| GAGCATTACACATATACACACATATATATAAACATA [CACACA_site5515] | 8.2 ± 0.45 |
| TATAATAATATTTATTGTACGATTAGATTAATTCAT [XGTACX_site612] | 7.46 ± 0.54 |
| ATATATATATATATTTGTACATAATATATATATGCA [XGTACX_site1795] | 9.28 ± 0.48 |
| AAACAATTTAGACATACACACAAAAATAATATTATA [CACACA_site384] | 7.68 ± 0.61 |
| ATATATATATATATATGTACATATTGTATTATTCAC [XGTACX_site6511] | 9.41 ± 0.49 |
| ATTAAAAAAAAGCTCATCGAAATGTCTTATATAAAT [CACACA_negctrl_site912] | 7.55 ± 0.65 |
| CACGAAAATTTGTAGAGTACATATATAATTAATATA [XGTACX_site3808] | 7.71 ± 0.52 |
| CAATTAAACAATTAAACATGCAAAATGATATAATAA [TGCATGCA_site240] | 7.61 ± 0.68 |
| AATAATCATGATCATAGTACGTATGAATACAAAAAA [XGTACX_site265] | 7.87 ± 0.67 |
| TATCTACTTAAATAAAATAAAAATAATAAATAAAAA [TGCATGCA_negctrl_site312] | 7.5 ± 0.59 |

| Sequence | gcPBM binding intensity (ln) |
| --- | --- |
| ATAAAACAAAGACACACACACATACACAAAAAAAAA [CACACA_site7752] | 8.18 ± 0.45 |
| TTTTATTTATTCCTACTTTTTTATTTATTTATTTAA [XGTACX_negctrl_site415] | 7.74 ± 0.68 |
| ACATTATGTCATAAATGTACACATACATATACATAC [XGTACX_site8998] | 7.81 ± 0.45 |
| CGTATGTATATATATATACACACTTCTGTGATACGA [CACACA_site1949] | 7.78 ± 0.49 |
| ATGTATAATATTTTCACACACAAGAAAAAAGAAAAG [CACACA_site3591] | 7.85 ± 0.33 |
| AAATGAATTTAACAATGTACACATATATTATAAATA [XGTACX_site1449] | 7.61 ± 0.52 |
| TACATAATAATAAGGCGTACATAAAAATTAAAAATT [XGTACX_site8769] | 8.18 ± 0.32 |
| AAAACGATTTTTTGCACACACATAATAAGCAGAACA [CACACA_site3871] | 9.38 ± 0.085 |
| ATATATATATGTATATGTACTCATTCTTCTGTGTTT [XGTACX_site5014] | 9.1 |
| TAAGTCAAAACTTTTTTTTCTAAATTTCCATAATTA [GTGCAC_negctrl_site29] | 7.16 ± 0.58 |
| ATATACATTCTATATACATGCATACTTCATTTTGTG [TGCATGCA_site966] | 8.03 ± 0.85 |
| ATTATACCGTATTTTGCATGTAGTATTTTCATTTTA [TGCATGCA_site1021] | 8.12 ± 0.86 |
| ATTAATTATGTATTTCAACAAAGAAGTGTTATATAT [GTGCAC_negctrl_site215] | 7.91 ± 0.54 |
| TCTTTATCCTTTCTCTTTTTATTAATTATAATATTC [TGCATGCA_negctrl_site584] | 8.15 ± 0.67 |
| ATTATTTGTAATATAACACACACAAAAAAAGACTCG [CACACA_site8487] | 7.83 ± 0.43 |
| TATCATTTATATATGTGTACTTATTTATTTATTTAT [XGTACX_site7961] | 7.96 ± 0.28 |
| ATATATACCTAAGACACACACATATATATATATATA [CACACA_site764] | 9.36 ± 0.35 |
| AAATGTACAGGACGCACACACATATATATATATATA [CACACA_site3674] | 9.55 ± 0.37 |
| AAGGAAAATATTAACTGTACATATAAAATATATATA [XGTACX_site5310] | 7.91 ± 0.71 |
| AATGAATCCTTATATACACACATTATTATAGTATAG [CACACA_site7454] | 7.79 ± 0.53 |
| ATTTATATATATTTATGTACGTATTAATTTTTTTTT [XGTACX_site3877] | 7.76 ± 0.55 |
